In PubChem BioAssay (NCATS):
This list was built around the results that the source calls inconclusive (neither active nor inactive); the mix of calls is not that of the screen. No potency is given beside an inconclusive call; the fits are too rough. The source made the active and inactive calls. Calls come from the whole dose curve; as a rule, active = well fitted inhibition curve with a large enough effect; inconclusive = small, poorly fitted or top-dose-only effect, or another doubt; inactive = no such curve, though single readings can be large or run the other way.

Biological target: DNA polymerase eta (Homo sapiens) (UniProt Q9Y253)
Assay: qHTS for Inhibitors of Polymerase Eta: Confirmatory Assay for Cherry-picked Compounds (AID 720502)
Settings: Pol eta primer extension, TAMRA/BHQ fluorescence, 10 min
In short: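 Strand-displacement fluorescence (525 nm excitation, 598 nm emission) was read kinetically at 0 and 10 min after adding 50 nM final TAMRA-reporter/BHQ-2-template substrate. Beforehand, 10 nM Pol eta had been exposed to compound for 15 min at room temperature.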
Potency is the fitted concentration of half-maximal effect; tags give direction and shape of the fitted curve.

Sequence of UniProt Q9Y253 (Q9Y253 whole entry, looked up): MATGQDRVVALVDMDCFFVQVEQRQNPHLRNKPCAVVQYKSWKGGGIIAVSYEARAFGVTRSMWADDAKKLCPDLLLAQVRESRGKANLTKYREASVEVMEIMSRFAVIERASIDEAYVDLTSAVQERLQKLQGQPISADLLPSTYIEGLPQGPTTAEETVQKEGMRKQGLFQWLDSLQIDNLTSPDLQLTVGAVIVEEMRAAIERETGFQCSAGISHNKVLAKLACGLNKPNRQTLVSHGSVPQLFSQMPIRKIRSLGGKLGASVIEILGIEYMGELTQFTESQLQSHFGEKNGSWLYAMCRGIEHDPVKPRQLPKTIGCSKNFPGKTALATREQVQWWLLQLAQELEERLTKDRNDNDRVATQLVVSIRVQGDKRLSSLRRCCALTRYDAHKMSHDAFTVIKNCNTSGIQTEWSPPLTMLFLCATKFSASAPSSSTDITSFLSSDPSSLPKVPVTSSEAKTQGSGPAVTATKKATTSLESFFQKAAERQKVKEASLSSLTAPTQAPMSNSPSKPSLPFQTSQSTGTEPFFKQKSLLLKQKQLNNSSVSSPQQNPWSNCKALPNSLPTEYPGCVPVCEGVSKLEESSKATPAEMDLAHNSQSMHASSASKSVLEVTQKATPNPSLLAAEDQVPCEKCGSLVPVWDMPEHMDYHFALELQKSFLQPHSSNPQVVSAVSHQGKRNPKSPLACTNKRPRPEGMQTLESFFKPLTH

Question: How did the Potency turn out when COc1cc(/C=C2\C(=N)N3N=C(S(C)(=O)=O)SC3=NC2=O)ccc1OCCOc1ccc(C)cc1 was run?
Answer: Its Potency is inconclusive [inhibitor, single point].

Question: For Cc1ccc(-c2cc(C(=O)Nc3cccnc3)c3ccccc3n2)o1, which Potency is on record?
Answer: Its Potency is inconclusive [inhibitor, single point].

Question: How did the Potency turn out when Cc1oc(C(=O)O)cc1COc1ccc2c3c(c(=O)oc2c1)CCC3 was run?
Answer: The Potency was inconclusive [inhibitor, single point].

Question: O=c1[nH]c(Nc2ccccc2)cc2cc(Br)ccc12 was tested. Which Potency did it give?
Answer: The Potency was inconclusive [inhibitor, single point].

Question: For CC(=O)NS(=O)(=O)c1ccc(NC(=O)/C=C/c2ccc(C)o2)cc1, which Potency is on record?
Answer: The Potency was active: 42.6 µM.

Question: Which Potency does the source give for Cc1cccc(Nc2ccccc2C(=O)OCC(=O)NCc2ccco2)c1C here?
Answer: The Potency was inconclusive [inhibitor, single point].

Question: COc1ccc(CC(=O)N/N=C/c2ccc(-c3cccc(C(=O)O)c3)o2)cc1OC was tested. Which Potency did it give?
Answer: Its Potency is active: 19 µM.

Question: How did the Potency turn out when CCOC(=O)c1sc(NC(=O)c2ccc3nc[nH]c3c2)nc1C was run?
Answer: The Potency was inconclusive [inhibitor, single point].

Question: How did the Potency turn out when CCOC(=O)c1ccccc1NC(=O)c1ccc2c(SCC(=O)O)c3c(nc2c1)CCCC3 was run?
Answer: The Potency was active: 75.7 µM.

Question: How did the Potency turn out when Cc1ccc(C)n1-c1sc2c(c1C(=O)O)CCCC2 was run?
Answer: Its Potency is active: 26.9 µM.

Question: How did the Potency turn out when Cc1cccc(OCC(=O)Nc2nnc(S(=O)(=O)N3CCc4ccccc43)s2)c1 was run?
Answer: The Potency was inconclusive [inhibitor, single point].

Question: With Cc1ccc(NC(=O)c2cccc(C(=O)Nc3ccc(C)cc3C(=O)O)c2)c(C(=O)O)c1 as the compound, how does the Potency read?
Answer: The Potency was inconclusive [inhibitor, single point].

Question: For Cc1ccnc2nc(C(=O)Nc3nnc(-c4ccc(Cl)cc4)o3)nn12, which Potency is on record?
Answer: Its Potency is inconclusive [inhibitor, single point].

Question: How did the Potency turn out when CSc1cccc(N2CC(C(=O)N(CC(C)C)c3c(N)n(Cc4ccccc4)c(=O)[nH]c3=O)CC2=O)c1 (stereo not given) was run?
Answer: Its Potency is inconclusive [inhibitor, single point].

Question: For O=[n+]1c2c(n([O-])c3cc(F)c(N4CCCC4)cc31)CCC2, which Potency is on record?
Answer: The Potency was inconclusive [inhibitor, single point].

Question: Which Potency does the source give for CSC1=N/C(=C\C=C\c2cccs2)C(=O)S1 here?
Answer: Its Potency is inconclusive [inhibitor, single point].

Question: O=C(OCc1cc(=O)n2ccsc2n1)c1ccccc1NCCO was tested. Which Potency did it give?
Answer: Its Potency is inconclusive [inhibitor, single point].

Question: How did the Potency turn out when Cc1ccc(NC(=O)c2c3c(nc4ccccc24)CCC3)cc1S(=O)(=O)N(C)C was run?
Answer: Its Potency is inconclusive [inhibitor, single point].

Question: With Cc1ccccc1NS(=O)(=O)c1ccc2[nH]cc(C(=O)NC(C)c3ccccc3)c(=O)c2c1 (stereo not given) as the compound, how does the Potency read?
Answer: Its Potency is inconclusive [inhibitor, single point].

Question: For O=C(COC(=O)c1ccc([N+](=O)[O-])s1)NCc1ccc(F)cc1, which Potency is on record?
Answer: The Potency was inconclusive [inhibitor, single point].

Question: How did the Potency turn out when Cc1ccccc1NC(=O)CSc1[nH]c(=O)cc(C)c1C#N was run?
Answer: Its Potency is inconclusive [inhibitor, single point].

Question: Which Potency does the source give for CCCOc1cc2c(C#N)c(N3CCCC3)nc(N)c2c(N)n1 here?
Answer: The Potency was inconclusive [inhibitor, single point].

Question: CN(C)S(=O)(=O)c1ccc(Cl)c(NC(=O)COC(=O)/C=C/c2ccco2)c1 was tested. Which Potency did it give?
Answer: The Potency was inconclusive [inhibitor, partial curve].

Question: How did the Potency turn out when COc1cc(-c2cc(=O)c3c(O)c(OC)c(OC)cc3o2)cc(OC)c1O was run?
Answer: Its Potency is active: 67.5 µM.

Question: Which Potency does the source give for CCOc1ccc(-c2ccc(/C=C3/C(=N)N4C(C)=CSC4=NC3=O)o2)c([N+](=O)[O-])c1 here?
Answer: Its Potency is inconclusive [inhibitor, single point].

Question: With O=c1c(C(c2c(O)nc3n(c2=O)CCS3)c2cccc3ccccc23)c(O)nc2n1CCS2 as the compound, how does the Potency read?
Answer: Its Potency is inconclusive [inhibitor, single point].

Question: How did the Potency turn out when Cc1ccc(C(=O)NNC(=O)CSc2nnc3c(n2)[nH]c2ccc(F)cc23)cc1 was run?
Answer: The Potency was inconclusive [inhibitor, partial curve, poor fit].

Question: Cc1cc(CC(=O)O)c2oc(-c3ccoc3)cc(=O)c2c1 was tested. Which Potency did it give?
Answer: Its Potency is active: 7.57 µM.

Question: How did the Potency turn out when CC1CCN(S(=O)(=O)c2ccc(NC(=O)Cc3cccs3)cc2)CC1 was run?
Answer: The Potency was inconclusive [inhibitor, partial curve].

Question: For COc1cc(CC(=O)OCC(=O)NCc2ccco2)cc(OC)c1OC, which Potency is on record?
Answer: Its Potency is inconclusive [inhibitor, single point].

Question: How did the Potency turn out when Cc1cccn2c(=O)c3cc(C#N)c(=NC(=O)c4ccco4)n(Cc4ccco4)c3nc12 was run?
Answer: The Potency was inconclusive [inhibitor, single point].

Question: Which Potency does the source give for O=c1c2ccccc2nc2ccc(NCc3ccco3)nn12 here?
Answer: The Potency was inconclusive [inhibitor, single point].

Question: O=C(C1COc2ccccc2O1)N1CCc2ccccc21 (stereo not given) was tested. Which Potency did it give?
Answer: The Potency was inconclusive [inhibitor, single point].

Question: Which Potency does the source give for COc1cc(/C=C/C(=O)c2ccc(NS(=O)(=O)c3ccc(C)cc3)cc2)cc(OC)c1O here?
Answer: Its Potency is inconclusive [inhibitor, partial curve].

Question: Which Potency does the source give for COc1ccc(C2=NN(C(=O)CCCC(=O)O)C(c3cn(-c4ccccc4)nc3-c3ccccc3)C2)cc1 (stereo not given) here?
Answer: Its Potency is inconclusive [inhibitor, single point].

Question: CC(=O)Nc1ccc(NC(=O)CSc2nnc(NC(=O)c3ccc(Br)o3)s2)cc1 was tested. Which Potency did it give?
Answer: The Potency was inconclusive [inhibitor, single point].

Question: O=C(COC(=O)C1CCCC1)Nc1ncc(Cl)cc1Cl was tested. Which Potency did it give?
Answer: The Potency was inconclusive [inhibitor, single point].

Question: COc1ccc(OC)c(/C=N/Nc2nncn2/N=C/c2cc(OC)ccc2OC)c1 was tested. Which Potency did it give?
Answer: Its Potency is active: 30.1 µM.

Question: Cc1cc(NS(=O)(=O)c2ccc(NC(=O)/C=C/c3ccco3)cc2)nc(C)n1 was tested. Which Potency did it give?
Answer: Its Potency is active: 33.8 µM.

Question: With CCCSc1nnc(NC(=O)CSc2sc3c(O)cc(=O)[nH]c3c2C#N)s1 as the compound, how does the Potency read?
Answer: The Potency was active: 30.1 µM.
